# Over roughly 81,000 sequences, “one-hybrid fitness for binding parS DNA” has its median near -0.17; the highest 2% begin near 0.51. This is one part of the list.
# B1: Caulobacter ParB omega fusion; a variant is named by its letters at X, in order, B8GW30 (parent)
# chain: MESVVVGEPGMSEGRRGLGRGLSALLGEVDAAPAQAPGEQLGGSREAPIEILQRNPDQPRRTFREEDLEDLSNSIREKGVLQPILVRPSPDTAGEYQIVAGERAWRAAQRAGLKTVPIMVRELDDLAVLEIGIIENVQRADLNVLEEALSYKVLMEKFERTQENIAQTIGKSXSHVANXMRLLXLPDEVQSYLVSGELTAXHARAIAAAADPVALAKQIIEGGLSVRETEALARKAPNLSAGKSKGGRPPRVKDTDTQALESDLSSVLGLDVSIDHRGSTGTLTITYATLEQLDDLCNRLTRGI
# Variants of: B1
# Assay: one-hybrid fitness for binding parS DNA (scaled: cognate 1, non-cognate 0); higher = stronger binding
# Conditions: with parS DNA site
# Outline: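 The reporter was HIS3, with the binding site 19 bp from the promoter, in E. coli USO used for bacterial one-hybrid selection of Caulobacter ParB libraries with four specificity codons randomised. Growth was on M9 lacking histidine, with 0.1 mM IPTG and 5 mM 3-AT, for 48 hours at 37°C. Illumina sequencing covered plasmids before and after selection; three replicate libraries were pooled and variants with under 10 reads dropped. A fitness score is the log change in variant-to-wild-type read ratio, rescaled to the cognate and non-cognate references.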
row,Variant,one-hybrid fitness for binding parS DNA
1,SKRN,≤ 0.2
2,AKEV,≤ 0.2
3,TTGF,≤ 0.2
4,YTAW,≤ 0.2
5,YREL,≤ 0.2
6,YITL,≤ 0.2
7,IKAS,≤ 0.2
8,ASDD,≤ 0.2
9,RWYH,≤ 0.2
10,LTAV,≤ 0.2
11,MVMS,≤ 0.2
12,VETR,≤ 0.2
13,EAEL,≤ 0.2
14,PVLC,≤ 0.2
15,VAAL,≤ 0.2
16,CWRG,≤ 0.2
17,GPYH,0.233
18,ANYC,≤ 0.2
19,QMPR,≤ 0.2
20,CTSL,≤ 0.2
21,KRQP,≤ 0.2
22,TGMV,≤ 0.2
23,CGNS,≤ 0.2
24,HTRV,≤ 0.2
25,NNQP,≤ 0.2
26,GCAI,≤ 0.2

row,Variant,one-hybrid fitness for binding parS DNA
1,PELR,≤ 0.2
2,GMSR,≤ 0.2
3,HKDR,≤ 0.2
4,MCHT,≤ 0.2
5,SDQY,≤ 0.2
6,VGDN,≤ 0.2
7,EPIS,≤ 0.2
8,TTVL,≤ 0.2
9,DPAL,≤ 0.2
10,CPDD,≤ 0.2
11,TEDC,≤ 0.2
12,QMPV,≤ 0.2
13,DLEG,≤ 0.2
14,FLRK,≤ 0.2
15,LDWS,≤ 0.2
16,RTSY,0.489
17,GHKG,≤ 0.2
18,PTRL,≤ 0.2
19,RMHA,0.603
20,HSAE,≤ 0.2
21,NQRR,≤ 0.2
22,NPTI,≤ 0.2
23,YQCC,≤ 0.2
24,MFQR,≤ 0.2
25,RSER,≤ 0.2
26,QYYK,≤ 0.2

row,Variant,one-hybrid fitness for binding parS DNA
1,FADR,≤ 0.2
2,WIGG,≤ 0.2
3,DQKL,≤ 0.2
4,LMMY,≤ 0.2
5,PTNR,≤ 0.2
6,CKLC,≤ 0.2
7,VANA,≤ 0.2
8,RWDL,≤ 0.2
9,ECIR,≤ 0.2
10,ATNI,≤ 0.2
11,VYCR,≤ 0.2
12,NRGY,≤ 0.2
13,HWLV,≤ 0.2
14,YRHN,≤ 0.2
15,EDSF,≤ 0.2
16,KAKY,≤ 0.2
17,ACSC,≤ 0.2
18,PPFG,≤ 0.2
19,SSGR,≤ 0.2
20,TKWF,≤ 0.2
21,YKLT,≤ 0.2
22,LRAK,≤ 0.2
23,QKTF,≤ 0.2
24,IIPV,≤ 0.2
25,YTIV,≤ 0.2
26,HTMP,≤ 0.2

row,Variant,one-hybrid fitness for binding parS DNA
1,TRSI,≤ 0.2
2,QVSV,≤ 0.2
3,RKSN,0.296
4,VKKT,≤ 0.2
5,PGMM,≤ 0.2
6,QMYL,≤ 0.2
7,QLAR,≤ 0.2
8,KRSY,≤ 0.2
9,EHHR,≤ 0.2
10,QIQA,≤ 0.2
11,TRGQ,≤ 0.2
12,FDLP,≤ 0.2
13,RWLF,≤ 0.2
14,SESQ,≤ 0.2
15,KDVC,≤ 0.2
16,CQCR,≤ 0.2
17,PPMK,≤ 0.2
18,PLKG,≤ 0.2
19,RQVG,0.88
20,TFSG,≤ 0.2
21,VRRD,≤ 0.2
22,LGCT,≤ 0.2
23,PTPQ,≤ 0.2
24,RCHM,0.355
25,AGER,≤ 0.2
26,RIGD,≤ 0.2

row,Variant,one-hybrid fitness for binding parS DNA
1,ISEA,≤ 0.2
2,SGMF,≤ 0.2
3,KRIK,≤ 0.2
4,GENT,≤ 0.2
5,RCCW,0.244
6,HVHW,≤ 0.2
7,CFHT,≤ 0.2
8,IALY,≤ 0.2
9,NCTK,≤ 0.2
10,VPCV,≤ 0.2
11,PPLH,≤ 0.2
12,PNGL,≤ 0.2
13,CQMR,≤ 0.2
14,LWAC,≤ 0.2
15,LWFS,≤ 0.2
16,HSGL,≤ 0.2
17,PPKE,≤ 0.2
18,FHKS,≤ 0.2
19,KPSE,≤ 0.2
20,MLTP,≤ 0.2
21,RTPV,≤ 0.2
22,DMVS,≤ 0.2
23,AEPA,≤ 0.2
24,NNEF,≤ 0.2
25,QIGY,≤ 0.2
26,FIKR,≤ 0.2

row,Variant,one-hybrid fitness for binding parS DNA
1,TVNA,≤ 0.2
2,PPGR,≤ 0.2
3,HSSF,≤ 0.2
4,PKSA,≤ 0.2
5,MLVS,≤ 0.2
6,RNQE,≤ 0.2
7,GTMI,≤ 0.2
8,EGYL,≤ 0.2
9,EMHF,≤ 0.2
10,QSCE,≤ 0.2
11,FVLG,≤ 0.2
12,VICT,≤ 0.2
13,CHIR,≤ 0.2
14,QDKS,≤ 0.2
15,QKEH,≤ 0.2
16,IRTR,≤ 0.2
17,RWDA,0.29
18,ENDR,≤ 0.2
19,RKID,≤ 0.2
20,VMFL,≤ 0.2
21,QNSR,≤ 0.2
22,NLRA,≤ 0.2
23,SAHN,≤ 0.2

# — a collection of fitness landscapes (doi:10.1016/j.celrep.2020.107928)
